Measurements taken from PubChem BioAssay (NCATS).
Several values for one entry are separate records, joined by “and”; a condition that tells them apart may be missing. Equal values may be shown once. The inconclusive results got no clear call from the source; some entries with a clear call stand among them for comparison. Where the call is inconclusive, the potency comes from a doubtful curve fit. Activity calls are given as the source filed them. Calls follow the shape of the dose curve; as a rule, active = well fitted curve in the direction sought with a large enough effect; inconclusive = small, poorly fitted or top-dose-only effect, or another doubt; inactive = no such curve, though single readings can be large; an effect the other way counts as inactive or inconclusive.
Potency is read from the fitted curve at half-maximal effect; tags tell the direction and shape of the fitted curve.

System: not listed separately
Experiment: Confirmatory screen NINDS Rhodamine qHTS for Zika virus inhibitors (AID 1347161); also: nearly all actives have a fitted effect of over 60% in size
Details: purified enzyme assay, Rhodamine110 substrate fluorescence, 15 min; series mostly up to 114 µM
In short: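 Enzyme (25 nM, linked NS2B-NS3) was preincubated 15 min with compound in 10 mM Tris-HCl pH 8.0, 0.01% Tween 20. Rhodamine110 substrate (1.5 microM) was then added and fluorescence read at start and after 15 min.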
For `COc1c(N2CCNC(C)C2)c(F)cc2c(=O)c(C(=O)O)cn(C3CC3)c12` (configuration not stated), the Potency was inconclusive: 55.5 µM [inhibitor, partial curve].
For `CC(C)(C)OC(=O)N[C@H]1CCCCCC=C[C@@H]2C[C@@]2(C(=O)NS(=O)(=O)C2CC2)NC(=O)[C@@H]2C[C@@H](OC(=O)N3Cc4cccc(F)c4C3)CN2C1=O`, the Potency was active: 49.4 µM.
In the case of `O=C(C1CC1)N1CC[C@@H](Cn2c(-c3ccc(-c4ccc5occc5c4)cc3)nc3cnccc32)C1`, the Potency is reported as inconclusive: 11 µM [inhibitor, partial curve, poor fit].

System: Zika virus NS2B-NS3 protease (linked)
Experiment: 384 well plate NINDS AMC confirmatory qHTS for Zika virus inhibitors (AID 1347163); also: nearly all actives have a fitted effect of over 50% in size
Details: Recombinant NS2B-NS3 protease, Ac-VKTGKR-AMC fluorescence; series mostly up to 100 µM
In short: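 Linked protease 5/30/60 nM final; cpds up to 1 mM final, ~15 min preinc. Substrate Ac-VKTGKR-AMC 30 microM final. RT, dark, 25 min; FI ex 355/em 460; normalized to no-enzyme/no-inhibitor ctrls.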
For `CC1(C)CCC(CN2CCN(c3ccc(C(=O)NS(=O)(=O)c4ccc(NCC5CCOCC5)c([N+](=O)[O-])c4)c(Oc4cnc5[nH]ccc5c4)c3)CC2)=C(c2ccc(Cl)cc2)C1`, the Potency was active: 31.6 µM and inconclusive: 44.7 µM [inhibitor, partial curve].
For `Cc1ccc(-n2[nH]c(C)c(N=Nc3cccc(-c4cccc(C(=O)O)c4)c3O)c2=O)cc1C`, the Potency was active: 178 µM.
With `CN(C)CC[C@H](CSc1ccccc1)Nc1ccc(S(=O)(=O)NC(=O)c2ccc(N3CCN(Cc4ccccc4-c4ccc(Cl)cc4)CC3)cc2)cc1[N+](=O)[O-]` the Potency was inconclusive: 63.1 µM [inhibitor, partial curve, poor fit].

Molecular target: Lysine-specific demethylase 5B (Homo sapiens) (UniProt Q9UGL1)
Chain of UniProt Q9UGL1 (Q9UGL1 whole entry, looked up): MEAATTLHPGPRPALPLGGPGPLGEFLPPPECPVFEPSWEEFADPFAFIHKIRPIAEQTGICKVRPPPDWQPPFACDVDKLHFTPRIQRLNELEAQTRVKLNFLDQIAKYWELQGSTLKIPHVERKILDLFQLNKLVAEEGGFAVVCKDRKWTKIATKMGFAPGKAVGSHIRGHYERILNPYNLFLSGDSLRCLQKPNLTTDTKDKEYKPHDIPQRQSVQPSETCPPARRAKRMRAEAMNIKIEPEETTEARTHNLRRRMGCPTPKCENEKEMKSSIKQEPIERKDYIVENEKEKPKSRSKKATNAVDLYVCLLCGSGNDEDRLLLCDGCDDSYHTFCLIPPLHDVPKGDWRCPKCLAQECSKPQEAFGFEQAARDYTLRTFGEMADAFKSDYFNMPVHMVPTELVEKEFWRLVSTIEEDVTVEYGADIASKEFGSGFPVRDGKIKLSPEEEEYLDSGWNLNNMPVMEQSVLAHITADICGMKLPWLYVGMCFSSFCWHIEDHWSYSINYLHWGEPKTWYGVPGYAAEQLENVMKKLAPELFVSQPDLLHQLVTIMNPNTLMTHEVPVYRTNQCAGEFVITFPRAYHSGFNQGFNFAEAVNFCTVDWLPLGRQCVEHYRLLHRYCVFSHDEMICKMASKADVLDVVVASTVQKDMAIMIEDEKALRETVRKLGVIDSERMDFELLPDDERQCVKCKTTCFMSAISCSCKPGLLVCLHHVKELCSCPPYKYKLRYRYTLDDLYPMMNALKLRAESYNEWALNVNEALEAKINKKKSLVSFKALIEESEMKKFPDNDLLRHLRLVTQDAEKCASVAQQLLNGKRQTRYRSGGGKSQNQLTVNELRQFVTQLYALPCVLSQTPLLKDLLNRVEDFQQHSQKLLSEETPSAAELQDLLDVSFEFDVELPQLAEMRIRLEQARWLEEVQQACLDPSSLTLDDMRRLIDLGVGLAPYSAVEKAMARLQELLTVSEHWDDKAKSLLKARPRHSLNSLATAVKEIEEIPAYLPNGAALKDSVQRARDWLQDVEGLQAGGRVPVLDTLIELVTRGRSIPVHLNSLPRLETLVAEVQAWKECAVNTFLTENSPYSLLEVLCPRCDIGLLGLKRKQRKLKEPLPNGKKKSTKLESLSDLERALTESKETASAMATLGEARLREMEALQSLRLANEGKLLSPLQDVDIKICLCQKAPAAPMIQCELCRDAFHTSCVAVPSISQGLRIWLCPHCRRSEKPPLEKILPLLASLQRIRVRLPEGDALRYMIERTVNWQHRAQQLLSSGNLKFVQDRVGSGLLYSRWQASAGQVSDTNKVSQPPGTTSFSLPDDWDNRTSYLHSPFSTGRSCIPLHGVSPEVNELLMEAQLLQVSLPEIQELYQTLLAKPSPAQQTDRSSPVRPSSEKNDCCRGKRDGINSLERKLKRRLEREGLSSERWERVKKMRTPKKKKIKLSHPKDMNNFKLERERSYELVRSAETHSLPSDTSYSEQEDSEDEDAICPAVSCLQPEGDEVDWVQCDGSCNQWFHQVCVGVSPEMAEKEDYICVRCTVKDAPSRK
Experiment: Optimization screen for KDM5B Histone Demethylases FDH coupled qHTS against the LOPAC library (AID 1347166)
Details: KDM5B demethylation, FDH-coupled NADH fluorescence (FDH is formaldehyde dehydrogenase); series mostly up to 57.5 µM
In short: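 KDM5BDeltaAP (200nM final) preincubated 10 min with compound, then 12.5uM H3K4Me3, 25uM a-ketoglutarate, ascorbate, Fe(II), NAD+ and FDH added; 50mM HEPES pH 7.5, 0.01% Tween-20. NADH fluorescence (340/450 nm) change over 30 min, room temperature.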
For `CN1CCC(=C2c3ccccc3CC(=O)c3sccc32)CC1`, the Potency was “inactive”.
For `Nc1ncnc2nc(-c3ccc(N4CCOCC4)nc3)cc(-c3cccc(Br)c3)c12`, the Potency was inconclusive: 25.1 µM [inhibitor, single point].
For `CC1COc2c(N3CCN(C)CC3)c(F)cc3c(=O)c(C(=O)O)cn1c23` (configuration not stated), the Potency was inconclusive: 28.2 µM [inhibitor, partial curve, poor fit].
For `O=C1c2ccccc2-c2n[nH]c3cccc1c23`, the Potency was “inactive”.
For `O=c1ccc2ccc(O)c(O)c2o1`, the Potency was inconclusive: 20 µM [inhibitor, partial curve, poor fit].
With `CC(CCc1ccc(O)cc1)NCCc1ccc(O)c(O)c1` (configuration not stated) the Potency was inconclusive: 20 µM [inhibitor, partial curve, poor fit].
In the case of `O=c1c(O)c(-c2cc(O)c(O)c(O)c2)oc2cc(O)cc(O)c12`, the Potency is reported as inconclusive: 20 µM [inhibitor, partial curve, poor fit].
With `COc1ccccc1OCCNCC(O)COc1cccc2[nH]c3ccccc3c12` (configuration not stated) the Potency was “inactive”.
With `Clc1ccc(C(c2ccccc2Cl)C(Cl)Cl)cc1` (configuration not stated) the Potency was inconclusive: 28.2 µM [inhibitor, single point].
With `CCC(C)N(C)C(=O)c1cc2ccccc2c(-c2ccccc2Cl)n1` (configuration not stated) the Potency was “inactive”.
For `O=C1c2c(O)cc(O)cc2OC(c2ccc(O)c(O)c2)C1O` (configuration not stated), the Potency was inconclusive: 20 µM [inhibitor, partial curve, poor fit].
With `OCCN(CCO)c1nc(N2CCCCC2)c2nc(N(CCO)CCO)nc(N3CCCCC3)c2n1` the Potency was inconclusive: 20 µM [inhibitor, partial curve, poor fit].
With `CCn1cc(C(=O)O)c(=O)c2ccc(C)nc21` the Potency was “inactive”.
For `O=c1[nH]c(=O)n([C@H]2C[C@@H](O)[C@@H](CO)O2)cc1C=CBr`, the Potency was “inactive”.
In the case of `C[C@H]1c2cccc(O)c2C(O)=C2C(=O)[C@]3(O)C(O)=C(C(N)=O)C(=O)[C@@H](N(C)C)[C@@H]3[C@@H](O)[C@@H]21`, the Potency is reported as inconclusive: 35.5 µM [inhibitor, partial curve, poor fit].
With `O=C(CCc1ccc(O)cc1)c1c(O)cc(O)cc1O` the Potency was inconclusive: 25.1 µM [inhibitor, partial curve, poor fit].
